{"source": "PubChem BioAssay AID2147", "about": "(National Center for Advancing Translational Sciences (NCATS), 2009)", "note": "Several values for one entry are separate records, joined by “and”; a condition that tells them apart may be missing. Identical values can stand only once. Hit rate of the full screen: of about 230,000 compounds, about 3,600 (1.6%) were called active. Inconclusive results, whose numbers are uncertain, are shown with a selection of clear calls. Calls follow the shape of the dose curve; as a rule, active = well fitted inhibition curve with a large enough effect (not every such curve was filed as active); inconclusive = small, poorly fitted or top-dose-only effect, or another doubt; inactive = no such curve, though single readings can be large or run the other way. Potencies of inconclusive entries are doubtful fits and often do not repeat. Also: nearly all actives have a fitted effect of over 50% in size.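 For activity change, negative = inhibition in this document: 0% = wells with enzyme and -100% = buffer wells without enzyme.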 Potency is read from the fitted curve at half-maximal effect; tags tell the direction and shape of the fitted curve.", "data": [{"target": "Lysine-specific demethylase 4E (Homo sapiens) (UniProt B2RXH2)", "sequence (B2RXH2 whole entry, looked up, the tested form may be a part)": "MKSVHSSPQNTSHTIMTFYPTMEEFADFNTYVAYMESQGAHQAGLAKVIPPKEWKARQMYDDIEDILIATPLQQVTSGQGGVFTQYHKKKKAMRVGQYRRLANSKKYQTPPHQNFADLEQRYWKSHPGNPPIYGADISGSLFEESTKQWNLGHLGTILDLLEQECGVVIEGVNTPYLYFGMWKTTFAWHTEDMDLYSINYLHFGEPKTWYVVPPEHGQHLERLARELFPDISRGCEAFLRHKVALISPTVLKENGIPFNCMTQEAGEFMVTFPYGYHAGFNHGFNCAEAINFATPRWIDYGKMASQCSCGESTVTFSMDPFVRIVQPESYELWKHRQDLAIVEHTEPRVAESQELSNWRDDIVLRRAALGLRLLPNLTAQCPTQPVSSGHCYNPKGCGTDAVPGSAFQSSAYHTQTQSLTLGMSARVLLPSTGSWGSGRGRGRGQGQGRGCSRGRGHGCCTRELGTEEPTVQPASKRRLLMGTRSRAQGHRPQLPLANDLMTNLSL", "assay": "qHTS Assay for Inhibitors of Human Jumonji Domain Containing 2E (JMJD2E)", "settings": "JMJD2E catalytic domain, FDH-coupled NADH fluorescence (FDH is formaldehyde dehydrogenase); series mostly up to 57.1 µM; activity change, negative = inhibition: at the top concentration", "values": [{"smiles": "CCn1c(=O)c([N+](=O)[O-])c(Cl)c2ccccc21", "activity change, negative = inhibition": "inactive: 4.2%"}, {"smiles": "CC(=O)C1=C(O)C(=O)N(c2ccc(S(=O)(=O)Nc3nccs3)cc2)C1c1ccc(F)cc1", "note": "(stereo not drawn)", "Potency": "inconclusive: 31.6 µM [inhibitor, single point]"}, {"smiles": "Cc1cccc2cc3c(N)c(C#N)sc3nc12", "activity change, negative = inhibition": "inactive: 0.138%"}, {"smiles": "C=CCn1c(=NC(=O)c2cccs2)sc2cc(NC(C)=O)ccc21", "Potency": "inconclusive: 28.2 µM [inhibitor, partial curve]"}, {"smiles": "Cc1cc(C)c2nc(N3CCCN(C(=O)c4ccco4)CC3)c(C#N)cc2c1", "Potency": "inconclusive: 31.6 µM [inhibitor, partial curve]"}, {"smiles": "Cc1ccc2c(c1)NC(=O)C(CC(=O)N(C)Cc1ccccc1)O2", "note": "(stereo not drawn)", "activity change, negative = inhibition": "inactive: 4.67%"}, {"smiles": "Oc1ccc(Br)cc1-c1nc2cnccn2c1NC1CCCCC1", "Potency": "inconclusive: 31.6 µM [inhibitor, single point]"}, {"smiles": "Cc1cc(NC(=O)c2ccc(C#N)cc2)on1", "activity change, negative = inhibition": "inactive: 2.8%"}, {"smiles": "CCOC(=O)C1=C(c2ccccc2)OC(N)=C(C#N)C1c1cccs1", "note": "(stereo not drawn)", "Potency": "inconclusive: 25.1 µM [inhibitor, partial curve]"}, {"smiles": "CC(=O)c1cccc(NC(=O)CN2C(=S)NC(C)(C)CC2C)c1", "note": "(stereo not drawn)", "activity change, negative = inhibition": "inactive: -7.35%"}, {"smiles": "COc1ccc(CCC(C)Nc2ccc(F)cc2)cc1", "note": "(stereo not drawn)", "Potency": "inconclusive: 11.2 µM [inhibitor, partial curve, poor fit]"}, {"smiles": "COc1ccc(/C(C)=N/NC(=O)c2ccccc2N)cc1", "Potency": "inconclusive: 39.8 µM [inhibitor, single point]"}, {"smiles": "O=C(COc1ccccc1Cl)c1ccc[nH]1", "activity change, negative = inhibition": "inactive: -6.65%"}, {"smiles": "O=C(Nc1ccc2c(c1)OCO2)NC1(C(F)(F)F)Oc2ccccc2O1", "Potency": "inconclusive: 31.6 µM [inhibitor, single point]"}, {"smiles": "Cc1cc2nc(C)c(Cl)c(=O)n2[nH]1", "Potency": "inconclusive: 28.2 µM [inhibitor, single point]"}, {"smiles": "CCn1c(SCc2ccc(Cl)cc2)nc2nc3c(cc2c1=O)CCCC3", "activity change, negative = inhibition": "inactive: 0.495%"}, {"smiles": "COC(=O)c1[nH]c(C)c(/C(O)=C2\\C(=O)C(=O)N(CCN(C)C)C2c2ccco2)c1C", "note": "(stereo not drawn)", "activity change, negative = inhibition": "inactive: -6.28%"}, {"smiles": "COC(=O)c1ccc(C2N=C(c3cccs3)CC(c3ccccc3O)N2)cc1", "note": "(stereo not drawn)", "Potency": "inconclusive: 25.1 µM [inhibitor, partial curve]"}, {"smiles": "Cc1ccc(N(Cc2cc3ccc(C)cc3[nH]c2=O)C(=O)c2ccco2)c(C)c1", "Potency": "inconclusive: 39.8 µM [inhibitor, single point]"}, {"smiles": "CN(C)CCCNc1oc(-c2ccccc2)nc1C#N", "Potency": "inconclusive: 25.1 µM [inhibitor, partial curve]"}, {"smiles": "O=C(Nc1ccc2oc(-c3ccccc3Cl)nc2c1)c1ncn[nH]1", "Potency": "inconclusive: 31.6 µM [inhibitor, partial curve]"}, {"smiles": "Cc1ccc(OCC(=O)Nc2ccccc2[N+](=O)[O-])c(Br)c1", "activity change, negative = inhibition": "inactive: 0.357%"}, {"smiles": "CC(C)CCN1CN(S(=O)(=O)c2cccs2)c2nc3ccccc3nc21", "Potency": "inconclusive: 39.8 µM [inhibitor, single point]"}, {"smiles": "N#Cc1cccc(-n2nnnc2-c2ccccn2)c1", "Potency": "inconclusive: 39.8 µM [inhibitor, single point]"}, {"smiles": "CC(=O)c1sc(NC(=O)c2ccc(C(C)(C)C)cc2)nc1C", "Potency": "inconclusive: 25.1 µM [inhibitor, partial curve]"}, {"smiles": "CC(=O)/C(=C/c1ccc(N(C)C)cc1)C(=O)c1ccccc1", "activity change, negative = inhibition": "inactive: -4.65%"}, {"smiles": "COCCNCC(=O)N1CCCCCC1", "activity change, negative = inhibition": "inactive: 3.46%"}, {"smiles": "COC(=O)c1[nH]c2cc(OC)ccc2c1NC(=O)CCN1CCCCC1", "Potency": "inconclusive: 25.1 µM [inhibitor, single point]"}, {"smiles": "O=[N+]([O-])c1ccc(N/N=C\\c2cccnc2)nc1", "activity change, negative = inhibition": "inactive: -0.858%"}, {"smiles": "CC1CCN(Cc2c(O)ccc3c(=O)c(-c4nc5ccccc5s4)c(N)oc23)CC1", "Potency": "inconclusive: 4.47 µM [inhibitor, full curve]"}, {"smiles": "CN1CCN(c2nc3cc(C(F)(F)F)ccc3n3cccc23)CC1", "Potency": "inconclusive: 35.5 µM [inhibitor, single point] and inconclusive: 39.8 µM [inhibitor, single point]"}, {"smiles": "COCCCNC(=S)N/N=C/c1ccc(N(C)C)cc1Cl", "Potency": "inconclusive: 28.2 µM [inhibitor, partial curve]"}, {"smiles": "CCOCC(=O)Nc1nc(-c2ccccc2)c(CC)s1", "activity change, negative = inhibition": "inactive: -0.907%"}, {"smiles": "CCOC(=O)CSc1ccc(S(=O)(=O)N2CCCCC2)cc1[N+](=O)[O-]", "activity change, negative = inhibition": "inactive: -14.2%"}, {"smiles": "COC(=O)c1ccc(CSc2nnc(SCc3ccc(C(=O)OC)o3)s2)o1", "activity change, negative = inhibition": "inactive: -2.5%"}, {"smiles": "Cc1cc(C)nc(Nc2n[nH]c(-c3cccc4ccccc34)n2)n1", "Potency": "inconclusive: 28.2 µM [inhibitor, single point]"}, {"smiles": "COc1cccc(NC(=O)/C=C/c2ccc([N+](=O)[O-])cc2)c1", "activity change, negative = inhibition": "inactive: -12.8%"}, {"smiles": "N/C(CN1CCCC1=O)=N\\OC(=O)c1ccccc1Cl", "activity change, negative = inhibition": "inactive: 2.75%"}, {"smiles": "CCOc1ccc(-c2nc(C#N)c(NCC(C)C)o2)cc1", "Potency": "inconclusive: 14.1 µM [inhibitor, partial curve]"}, {"smiles": "CC(=O)Nc1ccc(OS(=O)(=O)c2ccc(C(C)(C)C)cc2)cc1", "activity change, negative = inhibition": "inactive: 18%"}, {"smiles": "CN(C)c1ccc(-c2noc(C3CCN(S(=O)(=O)c4cccc(Cl)c4)CC3)n2)cc1", "Potency": "inconclusive: 28.2 µM [inhibitor, partial curve]"}, {"smiles": "Cc1cccc(N/C(N)=N/c2nc(CSc3ccc(Cl)cc3)cc(=O)[nH]2)c1", "activity change, negative = inhibition": "inactive: 6.5%"}, {"smiles": "CN1CCN(CCC(=O)N/N=C/c2cc([N+](=O)[O-])ccc2O)CC1", "Potency": "active: 0.891 µM"}, {"smiles": "COc1ccc(-c2nn(C)c3sc(C(=O)NCc4ccco4)cc23)cc1OC", "Potency": "inconclusive: 31.6 µM [inhibitor, partial curve]"}, {"smiles": "COc1ccc(Cn2nnnc2C(c2cc(OC)ccc2OC)N2CCC(C(N)=O)CC2)cc1", "note": "(stereo not drawn)", "activity change, negative = inhibition": "inactive: -3.48%"}, {"smiles": "CCCn1c(-c2ccc(F)cc2)nc2c(NC(C)CCCN(CC)CC)nc(C)nc21", "note": "(stereo not drawn)", "Potency": "inconclusive: 25.1 µM [inhibitor, partial curve]"}, {"smiles": "O=C(COc1ccccc1)Nc1cccc(-c2nc3cc4ccccc4cc3[nH]2)c1", "Potency": "inconclusive: 22.4 µM [inhibitor, partial curve]"}, {"smiles": "Cc1ccc(OC(C)C(=O)N=Nc2c(O)[nH]c3ccc([N+](=O)[O-])cc23)cc1", "note": "(stereo not drawn)", "activity change, negative = inhibition": "inactive: 1.02%"}]}]}
